Laboratory results as given in PubChem BioAssay AID493208 (National Center for Advancing Translational Sciences (NCATS), 2011).
In all, about 44,000 compounds went through this assay and about 340 (0.77%) were called active. Inconclusive results (about 5%) are left out. The call rests on the fitted dose curve; in most records, active means well fitted inhibition curve with a large enough effect; inconclusive means small, poorly fitted or top-dose-only effect; inactive means flat fitted curve, though single readings scatter. The list shows a part of the results.

Assay: Acumen qHTS Assay for Inhibitors of the mTORC1 Signaling Pathway in MEF (Tsc2-/-, p53-/-) Cells: Sytravon;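 further: plate controls were DMSO for no effect and rapamycin for full effect; nearly all actives have a fitted effect of over 50% in size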
Settings: phospho-rpS6 immunofluorescence/PI, 24 h; series mostly up to 38.3 µM; activity change, negative = inhibition: at the top concentration
Method in brief: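 Tsc2-/-, p53-/- MEFs (empty-vector stable line) in DMEM + 10% FBS were treated with compounds 24 h at 37 degree Celsius, fixed, and immunostained for phospho-rpS6 (Alexa-488) with propidium iodide counterstain. Laser-scanning cytometry gave % positive cells, normalized against 7.5 nM rapamycin and DMSO.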

Activity change, negative = inhibition, inactive:
COc1ccc(CCNC(=O)CCn2c(=O)c3ccccc3n(CC(=O)Nc3ccccc3F)c2=O)cc1OC 13.8%, CCCCN(CC)CCNC(=O)Cn1cnc2sc(C)c(S(=O)(=O)N3CCC(C)CC3)c2c1=O -1.93%, O=C1c2oc3ccccc3c(=O)c2C(c2ccc(Br)cc2)N1c1ccccn1 (stereo not given) -2.52%, COC(=O)c1cnn(-c2ccc(C(=O)Nc3cccc(C(C)=O)c3)cc2)c1N 3.04%, CCOc1ccc(NC(=O)CC2C(=O)N(c3ccccc3)C(=O)N2CCc2ccc(OC)cc2)cc1 (stereo not given) 1.18%, Cn1c(=O)oc2cc(S(=O)(=O)N3CCC(C(=O)NCc4ccccc4Cl)CC3)ccc21 0.266%, Cc1ccc(NC(=O)Cn2nc(C)c3nn(-c4ccc(Cl)cc4)c(C)c3c2=O)cc1C -1.45%, O=C1CN(C(=O)Cc2ccc(F)cc2)C(c2ccccc2)c2cc(Br)ccc2N1 (stereo not given) -13.9%, CC(=O)c1ccc(N2CCN(S(=O)(=O)c3c(C)nc4sc(C)cn4c3=O)CC2)cc1 3.79%, CCCn1c(SCc2nc(-c3ccccc3C)no2)nnc1-c1ccc(Cl)cc1 1.96%, Cc1cccc(OCc2cc(=O)n3c(-c4ccccc4)csc3n2)c1C 0.75%, COc1ccc(N2C(=O)CSC23C(=O)N(CC(=O)NC2CCCCC2)c2ccccc23)cc1 (stereo not given) -2.75%, Cc1cccc(N2CCN(C(=O)C3CCC(CNS(=O)(=O)c4ccc(Br)s4)CC3)CC2)c1C (stereo not given) -20%, CCc1nn(CC(=O)N2CCN(c3cccc(C)c3C)CC2)c(=O)c2cc3occc3n12 -3.72%, CCc1nn(CC(=O)NC(C)CCc2ccccc2)c(=O)c2cc3cc(F)ccc3n12 (stereo not given) 0.442%, NC(=O)CSc1oc(-c2ccco2)nc1S(=O)(=O)c1ccc(Br)cc1 -1.11%, CCCCn1cc(S(=O)(=O)c2ccc(C)c(C)c2)c(=O)c2cc(F)c(N3CCN(C)CC3)cc21 -1.33%, Cn1c(CN2CCCCC2)nc2cc(NC(=O)c3cccc(Br)c3)ccc21 -6.97%, CCn1cc(C(=O)NCCCOC(C)C)c(=O)c2cc(S(=O)(=O)N3CCc4ccccc4C3)ccc21 -2.87%, O=C(CN1C(=O)CCSc2ccc(S(=O)(=O)N3CCCC3)cc21)Nc1ccccc1 0.967%, CCC(C(=O)Nc1ccccc1C(=O)OC)n1c(C)c2cnn(-c3ccccc3)c(=O)c2c1C (stereo not given) 0.0716%, CCC(Oc1ccccc1)C(=O)Nc1ccc(O)c(-c2nc3cc(C)ccc3o2)c1 (stereo not given) -9.27%, Cn1c(NCCCCO)nc2c1c(=O)n(Cc1ccc(Cl)cc1)c(=O)n2C -6.02%, COc1cccc(NC(=O)CCS(=O)(=O)c2ccc3c(c2)oc(=O)n3C)c1 -1.83%, O=C(Cn1cc(S(=O)(=O)Cc2ccccc2Cl)c2ccccc21)NCc1ccccc1Cl -2.45%, Cc1c2cnn(CC(=O)N3CCN(c4ccccc4)CC3)c(=O)c2c(C)n1Cc1ccc(F)cc1 -2.67%, CCOc1ccccc1NC(=O)CCS(=O)(=O)c1cccc2nsnc12 -3.57%, Cc1ccc(C)c(Cn2c(C(C)NC(=O)c3ccc(F)cc3)nc3ccccc32)c1 (stereo not given) -12.6%, CCN(c1ccccc1)S(=O)(=O)c1cc(-c2onc(C)c2C)ccc1OC 0%, COc1cccc(N2C(=O)C(CC(=O)Nc3ccc(Cl)cc3)N(Cc3ccc4c(c3)OCO4)C2=O)c1 (stereo not given) -7.49%, CCc1cccc(NC(=O)c2nnn(Cc3ccc(SC)cc3)c2N)c1 -8.84%, COc1ccc(N2CCN(C(=O)c3c(C)oc4ncnc(N5CCCCC5)c34)CC2)cc1 -12.1%, CCOCCCNC(=O)C(c1ccccc1)N(Cc1cccs1)C(=O)c1ccc(NC(C)=O)cc1 (stereo not given) 1.26%, CCn1c(=O)c2sccc2n2c(CCCC(=O)N3CCN(c4ccc(OC)cc4)CC3)nnc12 1.69%, O=C1CC(c2ccccc2)Cc2[nH]c(=O)c(C(=O)Nc3ccc(OC(F)(F)F)cc3)cc21 (stereo not given) 1.32%, Cc1cccc(N2CCN(C(=O)C3CCCN(S(=O)(=O)c4cccc5nsnc45)C3)CC2)c1C (stereo not given) -0.0785%, Cc1cccc(-c2noc(CCCC(=O)NCc3ccco3)n2)c1 -11.8%, COCCn1c(CCC(=O)Nc2cc(C)ccc2C)nc2cccnc21 -17.6%, O=C(Nc1ccc(Br)cc1)C1CCCN(S(=O)(=O)c2ccc(Br)s2)C1 (stereo not given) -7.89%, CCOc1ccc(S(=O)(=O)N2CCN(c3cc(Cl)ccc3Cl)CC2)c2ccccc12 1.84%, Cc1ccc(NC(=O)CN2C(=O)C(c3ccc(F)cc3)=NC23CCCCC3)c(C)c1 -1.41%, O=C(CCCCCn1c(=O)[nH]c2ccccc2c1=O)NCc1cccc(Cl)c1 0.226%, CCOc1ccccc1CNC(=O)C1CCN(S(=O)(=O)c2cccc3nonc23)CC1 2.62%, Cn1c(=O)c2c(SCC(=O)N3CCc4ccccc43)nc(-c3cccc(F)c3)nc2n(C)c1=O -6.78%, O=C(NCc1ccc(Cl)cc1)c1ccc(CSCc2cccc(Cl)c2)o1 -7.17%, O=C(Nc1ccc(Cl)cc1F)c1oc(=O)c2ccccc2c1-c1ccccc1 -8.47%, O=C(Cc1ccccc1)N(Cc1cccnc1)c1nc2c(F)cccc2s1 -8.1%, Cc1ccccc1OC(=O)c1snnc1C -7.29%, Cc1ccnc(NS(=O)(=O)c2ccc(NC(=O)C(C)(C)Oc3ccc(Cl)cc3)cc2)n1 -1.23%, CCOc1cccc2cc(-c3cn4c(n3)sc3cc(C)ccc34)c(=O)oc12 0.439%, CCOc1ccccc1NC(=O)CSc1nc2c(c(=O)[nH]1)CCC2 -5.65%, Nc1nc(Nc2cccc(C(F)(F)F)c2)sc1C(=O)c1ccccc1 -0.8%, Cc1ccc(OCC(=O)Nc2cccc(OCc3cc(=O)n4ccccc4n3)c2)cc1C 5.03%, C=C(C)Cn1c(SCC(=O)c2ccc(OC)cc2)nc2sc3c(c2c1=O)CCCC3 2.64%, Cc1cc(Br)ccc1NC(=O)C(Cc1ccccc1)NS(=O)(=O)c1ccc(Br)s1 (stereo not given) 1.56%, CCOc1cc(C2Nc3ccccc3-c3nnc(SCc4ccccc4)nc3O2)ccc1OC (stereo not given) 0.553%, CCC(C(=O)Nc1ccc(C(=O)OC)cc1)n1nc(-c2ccc(C)cc2)c2c(c1=O)CCCC2 (stereo not given) -9.11%, COc1cccc(CNC(=O)c2cc3cccc4c3n2CC(C)S4)c1OC (stereo not given) -4.56%, C#CCn1c(COc2ccccc2C)nc2ccccc21 -7.38%, COc1cc2c(=O)c(S(=O)(=O)c3ccc(F)cc3)cn(Cc3ccccc3C)c2cc1OC 4.1%, Cc1ccc(-c2noc(-c3ccc(N4CCC(C)CC4)c([N+](=O)[O-])c3)n2)cc1 -18.6%, Cc1ccc(-n2cc(-c3ccccc3)c3c(NC4CCCC4)ncnc32)cc1 9%, COc1cc(OC)c(OC)cc1CNCCSc1nnnn1-c1ccccc1 0.307%, Cc1cccc(N(C)C(=O)CN2C(=O)COc3ccc(S(=O)(=O)N4CCCCCC4)cc32)c1 -2.8%, CCN(Cc1ccccc1)C(=O)C1CCN(c2ncnc3c2nc2n3CCCCC2)CC1 -0.086%, O=C(NCC(c1cccs1)S(=O)(=O)c1cccs1)c1ccccc1 (stereo not given) -3.71%, CC(NC(=O)Cn1ncc2c3ccccc3n(Cc3ccc(F)cc3)c2c1=O)c1ccccc1 (stereo not given) -0.133%, CCOC(=O)c1ccc(NC(=O)C2Cc3ccccc3CN2S(=O)(=O)c2ccc(Cl)cc2)cc1 (stereo not given) 0.77%, Cc1cc(Br)ccc1NC(=O)CCS(=O)(=O)c1cccc2nonc12 -16.1%, CCOC(=O)c1c(NC(=O)c2noc3c2CC(C(C)(C)C)CC3)sc2c1CCCC2 (stereo not given) -0.432%, Cc1ccc(C)c(N2CCN(C(=O)CN3C(=O)COc4ccc(S(=O)(=O)N5CCCCCC5)cc43)CC2)c1 -7.07%, CC(=O)c1sc2c(c1C)c(=O)n(-c1ccc(Cl)cc1)c(=O)n2Cc1ccc(Cl)cc1 -19.7%, Cc1cc(C)c(Cn2c(C)c(CNCCCc3ccccc3)c(C(=O)O)c2C)c(C)c1 -10.5%, CCOC(=O)c1cc2c(=O)n3ccccc3nc2n(CC2CCCO2)c1=NC(=O)c1cccc(C(F)(F)F)c1 (stereo not given) -20.5%, CC(=O)N1CCC(N(Cc2ccco2)C(=O)Nc2cccc(C)c2)CC1 -9.5%, COc1ccc(-c2cc(C(=O)Nc3c(C(=O)c4ccc(Cl)cc4)oc4ccccc34)no2)cc1 -4.4%, Cc1cccc(NC(=O)c2cnn(-c3ccccc3)c2-n2cccc2)c1C 0.811%, CCC1CN(C(=O)N2CCC(C(=O)NCc3ccc(C)o3)CC2)c2cc(C)ccc2O1 (stereo not given) -10.1%, Cc1nc2c(C(=O)NCc3ccccc3Cl)cnn2c(C)c1Cc1c(F)cccc1Cl -6.43%, CC(=O)N1CCCc2cc(S(=O)(=O)N3CCC(C(=O)NCCC(C)C)CC3)ccc21 -13.4%, O=C(NC1CC(=O)N(c2ccc(F)cc2)C1)c1cc2ccccc2o1 (stereo not given) 1.91%, CN1CCN(C(c2ccccc2)c2sc3nc(-c4ccco4)nn3c2O)CC1 (stereo not given) -0.584%, COc1ccccc1NC(=O)n1ncc2c(C)cccc21 2.87%, CCOC(=O)c1nnc2c(-c3ccc(OC)cc3)c(C)nn2c1N -3.7%, O=S(=O)(Nc1cccc(-c2ccc(N3CCCCC3)nn2)c1)c1cccs1 0.774%, CC1CCc2nc(NC(=O)COc3ccc(C(C)(C)C)cc3)sc2C1 (stereo not given) -23.5%, CC(=O)c1cccc(NC(=O)CCS(=O)(=O)c2cc(Br)cc3c2N(C(=O)C2CC2)CC3)c1 2.76%, CCCC(=O)N1CC(=O)Nc2ccc(Cl)cc2C1c1ccc(F)cc1 (stereo not given) -8.26%, Cc1csc2nc(COC(=O)COc3ccccc3F)cc(=O)n12 -0.118%, CCOc1ccc(S(=O)(=O)Nc2ccc3oc(C)c(C(=O)OCCOC)c3c2)cc1 -29.7%, O=C(Cc1ccc(NC(=O)N2CCSc3ncccc32)cc1)NCc1ccccc1Cl -5.79%, CCS(=O)(=O)c1ncc(N(Cc2ccco2)Cc2sccc2C)c(C(=O)Nc2cc(C)ccc2C)n1 -9%, Cn1c(C(=O)NCc2ccc(F)cc2)cc2c(=O)n(C)c3ccccc3c21 -11.3%, COc1ccc(CCNC(=O)Cn2nnc(-c3ccc(C(F)(F)F)cc3)n2)cc1OC 0.15%, CCCn1c(=O)c2sccc2n2c(CCCC(=O)N3CCN(c4ccccc4)CC3)nnc12 1.69%
